# Laboratory results published in PMC4242493.
# The list shows a part of the results. The list includes weakly bound sequences.
# Biological target: MaxL homodimer (UniProt P61244)
# Test: universal protein-binding microarray (PBM)
# Settings: PBS-based mixture, 10 nM His-tagged protein dimer, 2% milk, 200 ng/uL BSA, 50 ng/uL salmon testes DNA, 0.02% TX-100; detection with Alexa 488 anti-His …; high values mean tight binding; most listed sequences are background and not binding sites; double strand, one strand shown
# Chain of UniProt P61244 (P61244 whole entry): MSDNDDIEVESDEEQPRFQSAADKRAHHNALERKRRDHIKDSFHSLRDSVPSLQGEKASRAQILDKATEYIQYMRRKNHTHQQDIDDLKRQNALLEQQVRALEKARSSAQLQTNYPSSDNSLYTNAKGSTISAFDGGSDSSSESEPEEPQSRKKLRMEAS
row,Sequence,binding signal (normalized occupancy)
1,GAAACAGC,0.0718
2,CACCATGG,0.0885
3,AGTCTCAT,0.0794
4,AAAAGTTG,0.0714
5,AGCGGATG,0.0709
6,AGTTACCC,0.0762
7,AGGGATTG,0.0729
8,ATTGAACG,0.082
9,TGGCGCAA,0.0726
10,AGTGTCGG,0.0693
11,CAGGTCGC,0.0697
12,ATAATATC,0.0827
13,GGCTACCC,0.0734
14,CTGTTAGC,0.074
15,CCAGCGCC,0.0674
16,ATTGAACC,0.0786
17,ACAATACC,0.0816
18,ACAGCCCC,0.0797
19,GGTTAAAC,0.0713
20,AGACTCCA,0.0712
21,AGCTGATG,0.0705
22,ACTCGTGA,0.0957

row,Sequence,binding signal (normalized occupancy)
1,TATGTGCA,0.084
2,CAATCTGC,0.0729
3,AGGGTAAC,0.0773
4,AGTCTAAA,0.0732
5,TACTAGCA,0.079
6,ATTTCCGA,0.07
7,ATGCTCAA,0.082
8,AGAGACAA,0.0698
9,TCTGGTAA,0.0774
10,CAGATAAA,0.078
11,AATCCCTA,0.0775
12,CTAGATAG,0.0728
13,CCAGTTGA,0.0724
14,ACAGGCCT,0.0719
15,CCGATAGA,0.0736
16,CAACCGAC,0.0749
17,AACAGCCA,0.0773
18,CGCGGCAA,0.0707
19,TGCATCAA,0.0818
20,GCTCCTAC,0.0742
21,CCTGTTGA,0.0694
22,TACTAGAA,0.0774

row,Sequence,binding signal (normalized occupancy)
1,TAAGACAA,0.0799
2,GCATGAAA,0.0848
3,GGAGCCAC,0.0768
4,GACATGGA,0.0844
5,GGGCGGAA,0.0682
6,TTTGCAAA,0.0763
7,CCGGTCCC,0.0695
8,AGCCCCTC,0.074
9,GAGGGGAC,0.0738
10,AGCTCAAT,0.0681
11,TCTCTGCA,0.0724
12,AATCCGGG,0.0707
13,AATCACTG,0.0742
14,CGTGATCC,0.0811
15,TCAAGGGA,0.0725
16,CCATCGTC,0.0723
17,ATAGGACG,0.0815
18,CTGGAATC,0.0758
19,AACTCACG,0.0819
20,ATAACCGA,0.0748
21,CGTGCGAG,0.0834
22,GGCAAATA,0.08

row,Sequence,binding signal (normalized occupancy)
1,CTAAGCGA,0.0687
2,CGTTCGTA,0.0781
3,ATCCATTA,0.0784
4,GATCTCCA,0.0768
5,ATGTGAAT,0.0967
6,GGGCGTCA,0.0752
7,GCTATTGA,0.0773
8,GAAGCCTC,0.0702
9,ACAGCGTG,0.123
10,ACCACCAT,0.0825
11,ATTGATAC,0.0773
12,GAGGCATA,0.0744
13,AGGAAGAC,0.0729
14,GCGGTTCC,0.0687
15,ATTAAGTC,0.0745
16,TTAAAAAA,0.0724
17,CTTGGTAC,0.0803
18,AATATCCA,0.0773
19,CCGTCCCA,0.0776
20,ACAGAGGT,0.0779
